In the supplement of paper PMC3334620:
In all, about 33,000 sequences were measured (“E-score (-0.5 to 0.5)”: median about -0.032, highest 2% from about 0.36 on). The list shows a part of the results.

Target: T1, Sko1 (UniProt Q02100)
T1 sequence: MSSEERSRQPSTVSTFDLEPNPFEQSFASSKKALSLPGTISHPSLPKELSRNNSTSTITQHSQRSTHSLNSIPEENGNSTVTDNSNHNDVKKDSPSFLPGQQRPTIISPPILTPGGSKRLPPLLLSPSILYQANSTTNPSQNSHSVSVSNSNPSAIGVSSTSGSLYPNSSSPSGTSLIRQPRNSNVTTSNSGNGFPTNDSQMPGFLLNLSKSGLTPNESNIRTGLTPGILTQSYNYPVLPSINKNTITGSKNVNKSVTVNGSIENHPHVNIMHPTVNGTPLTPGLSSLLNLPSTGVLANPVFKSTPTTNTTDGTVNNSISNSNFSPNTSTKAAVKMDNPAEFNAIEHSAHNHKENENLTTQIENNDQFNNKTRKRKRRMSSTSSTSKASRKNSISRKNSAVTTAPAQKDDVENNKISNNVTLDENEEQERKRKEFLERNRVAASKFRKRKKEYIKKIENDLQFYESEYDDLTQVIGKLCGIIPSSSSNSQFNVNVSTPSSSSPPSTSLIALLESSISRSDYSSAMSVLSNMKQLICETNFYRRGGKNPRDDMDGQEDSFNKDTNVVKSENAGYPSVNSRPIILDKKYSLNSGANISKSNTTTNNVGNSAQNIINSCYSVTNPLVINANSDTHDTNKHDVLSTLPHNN
Test: PBM E-score (8-mer binding enrichment) (E-score (-0.5 to 0.5)); higher = stronger / more preferred TF binding; most listed sequences are background and not binding sites
Settings: protein concentration: 200 nM; construct: GST-full length
Summary of the method: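 Yeast transcription factors, full-length or as DNA-binding domains, were expressed with a GST tag using PURExpress in vitro transcription/translation. At about 100-200 nM they were applied to universal all-10-mer Agilent arrays, double-stranded by primer extension on fresh or once-stripped slides. Fluorescent anti-GST detected bound protein, and masliner normalised the scans. E-scores for ungapped eight-base words, pooled with reverse complements, came from the Universal PBM Analysis Suite.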

Sequence | PBM E-score
CCTTGCCG | -0.227
CTTTCATC | -0.165
TCATACGA | 0.278
CGCGGCCC | -0.114
GAGCTGAC | 0.199
CTTTAGCA | -0.117
CGGAAGAC | -0.0906
ACATGTGG | -0.0358
AAGTTGGA | 0.0615
GCCTTAAA | 0.127
CATCAGAC | 0.0948
CACTATTA | 0.0904
ACGCCCAT | 0.00824
CGTTAGGA | 0.132
CGGTTTAA | 0.00485
CCATGAGG | -0.211
GCAGAAAA | 0.124
ACCCATGG | -0.16
CGATATTA | 0.274
ATTACTGC | 0.201
AGCTCCCA | -0.302
GTAGAGAA | -0.0178
AACATCTA | -0.104
AAAAACTC | 0.11
CCAGAATA | 0.125

Sequence | PBM E-score
CCAACTAA | 0.0202
ACCGTGCA | 0.123
CACGGTCC | -0.19
CCACTTCA | -0.126
CAGATTCA | -0.111
ACCCTTCC | -0.124
GATTCTGC | -0.0512
GTGGTAAA | 0.0542
ACTTCGGC | -0.00736
GCGATCGA | 0.127
ATCAAACG | 0.128
ATCCCGAT | -0.0671
GCTAATTA | 0.192
ATTGAAAA | 0.282
GAGTTTGC | -0.149
ATGGTGCG | -0.0974
ACGGCCCT | -0.16
CTAAGCTC | -0.188
CACTTAAG | 0.168
GCCCATGA | -0.0412
GCACGCCC | -0.255
AATCATGT | 0.132
GGTCCTCA | -0.147
AGGTGACA | 0.118
ACATAACA | 0.198

Sequence | PBM E-score
AATGGCAG | -0.17
AGTCACCA | -0.269
ATGCCTTA | 0.0451
ATATTTGA | 0.0539
CCCGTCTA | -0.0364
CGATTAAC | -0.0568
CATTACCG | 0.00411
GAGGGGAC | -0.142
ACAGACCG | -0.143
ACACATCA | 0.158
ACTGTCTC | -0.164
TCTGGACA | -0.213
ACAGAGCG | -0.0423
ATTGTGCG | 0.115
ACTTAAGT | 0.211
AGGATTCG | -0.0603
AGCTTCGA | -0.1
CATGAGTA | -0.0243
ATCACAGC | 0.162
AATGGGCC | -0.345
CTGTCATA | 0.141
ACCGGTCG | -0.217
CGAGAAGC | -0.209
CCCATCAC | -0.048
CCCTGATC | -0.226

Sequence | PBM E-score
ACTCCGCA | -0.0918
ACAGAACA | 0.103
CCTGCTAC | -0.00964
TAGGCGCA | -0.13
CCATGGCA | -0.0266
CACAATCG | 0.0159
GCGGAGTA | -0.186
ACCCGGGA | -0.204
GAAACAGC | -0.179
CCGCTAAC | -0.144
AGGTTACT | -0.114
GTCAGAAC | 0.13
CAATATCA | 0.172
CAGCGGAA | -0.153
GGAGTTAC | 0.00614
GACGATTA | 0.249
CCGACCCG | -0.0145
CACCCCGG | -0.219
GAAGACGC | 0.0134
AATCACAC | 0.184
GCTAAATA | 0.178
CTATCTTA | -0.0753
CAAATGTA | 0.244
CCGGGTGC | -0.277
CTCAACAG | -0.122

Sequence | PBM E-score
GAGGACAA | -0.108
CCCCGCGA | -0.307
CCCTGACA | -0.238
ATAGCCCA | 0.00831
TACAACGA | 0.104
CAATTTGA | 0.0958
CGGAGGTC | -0.361
CGAAACCC | -0.164
ACACGCTG | 0.0914
ATAAGCTC | 0.066
ACTTCGCT | 0.0397
CATAGTTA | 0.133
CTGTCGGC | -0.148
AGCGTGGC | -0.188
AATCTATG | 0.147
CCAGCTGC | -0.294
GATTTGAC | 0.224
TATGGTGA | 0.0155
CGATCCCG | -0.292
GAGGGGCC | -0.396
CTCCGCCA | -0.245
AATATACT | 0.0894
CCTTACAA | -0.223
AGTAGTAG | -0.101
ACTTGCCC | -0.215

Sequence | PBM E-score
GCTCAGCC | -0.117
GGGACCAA | -0.122
CAAACTAA | 0.144
AAGGATTC | -0.233
ACCTTCCC | -0.216
CTAGCACC | -0.0644
AAGTTCAG | 0.102
AAACGCAG | 0.114
GACTGGTA | -0.105
AGCACTTG | -0.253
AGTTAAGA | 0.0298
CGCTGACC | -0.15
GGCGACCC | -0.368
GACCATAC | -0.081
ACGTTGGC | 0.233
CGTATTGC | 0.223
CGGGAATA | -0.111
AGCAGAAC | 0.0202
CTTGGACC | -0.258
GGGGTTAC | -0.019
CGGGCGAC | -0.177
AGTCGTGA | -0.046
CTATGTGC | 0.056
ACTAGAGA | -0.0523
CCGGTCTC | -0.302

Sequence | PBM E-score
AGCATGCG | 0.0664
AGTACTCA | -0.13
GGGGGTTA | -0.319
CGCCGTCC | 0.00089
CCGGGATA | -0.179
GTACCGGA | 0.0372
CTACTATA | 0.0747
ACAAGGAA | -0.141
GCGCGCAA | 0.113
ACAATCCC | -0.132
AAGTTGGT | 0.0333
CAAGTGTA | -0.126
AAGATGGG | -0.241
CGTTCTAA | 0.131
TCACCCAA | 0.114
GCCGTCGA | -0.11
GGCTCCCA | -0.34
ATGGAGGG | -0.334
ATTGCCGC | -0.201
CAACCACC | -0.238
AGTCCATG | -0.211
ACCTGAAC | -0.141
